Laboratory results reported in PubChem BioAssay AID1461 (National Center for Advancing Translational Sciences (NCATS), 2008).
About 2,300 (1%) of roughly 220,000 compounds were called active. Inconclusive means that the source gave no clear call. Such entries were picked first, then a sample of the others. The call rests on the fitted dose curve; in most records, active means well fitted inhibition curve with a large enough effect; inconclusive means small, poorly fitted or top-dose-only effect, or effect the other way; inactive means no such curve, though single readings can be large or run the other way. No potency is given beside an inconclusive call; the fits are too rough.

Biological target: Neuropeptide S receptor (Homo sapiens) (UniProt Q6W5P4)
Assay: qHTS Assay for Antagonists of the Neuropeptide S Receptor: cAMP Signal Transduction; further: nearly all actives have a fitted effect of over 50% in size
Conditions: CHO-NPSR cells, cAMP TR-FRET, antagonist mode; activity change, negative = inhibition: at 38.3 µM (top of the series) unless noted
On the % scale 0 is the no-effect control and ±100 the full control effect; potency means the concentration at half of the fitted maximal effect; tags describe the fitted curve by direction and shape.

Chain of UniProt Q6W5P4 (Q6W5P4 whole entry, looked up): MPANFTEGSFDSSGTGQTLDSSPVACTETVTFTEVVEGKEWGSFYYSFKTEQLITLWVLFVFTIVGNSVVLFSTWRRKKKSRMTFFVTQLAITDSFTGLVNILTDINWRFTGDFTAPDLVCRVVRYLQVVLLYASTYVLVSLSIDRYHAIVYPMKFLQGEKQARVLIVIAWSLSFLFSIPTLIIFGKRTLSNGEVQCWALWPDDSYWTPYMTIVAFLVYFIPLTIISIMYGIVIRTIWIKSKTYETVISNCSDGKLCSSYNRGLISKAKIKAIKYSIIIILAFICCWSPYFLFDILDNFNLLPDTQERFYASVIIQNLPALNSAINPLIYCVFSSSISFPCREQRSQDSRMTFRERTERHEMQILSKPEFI

SMILES | Potency | activity change, negative = inhibition
CCS(=O)(=O)N1CCN(C(=O)CC(C)C)CC1 | inconclusive [inhibitor, single point] | –
CC(=NCC1CCNCC1)C1=C(O)CC(C)(C)CC1=O | – | inactive: 7.14% [at 46.1 µM]
c1ccc(-c2cc3c(NCC4COc5ccccc5O4)ncnc3s2)cc1 (stereo not given) | inconclusive [inhibitor, single point] | –
Nc1nc2c3ccccc3nc(Cc3ccccc3)n2n1 | inconclusive [inhibitor, single point] | –
COc1ccc(C(C)=O)cc1COC(=O)c1ccc2c(c1)OCO2 | – | inactive: -17.5% [at 46.1 µM]
CCCCCCCCCCCCCCCCCC(=O)OC(CC(=O)O)C[N+](C)(C)C (stereo not given) | inconclusive [inhibitor, full curve, poor fit] | –
Cc1cc2nc(CCN(C(=S)NCC3CCCO3)C3CCCC3)[nH]c2cc1C (stereo not given) | inconclusive [inhibitor, single point] | –
O=Cc1ccc(Oc2ccc(F)cc2)nc1 | – | inactive: 11.4%
CCOc1ccccc1OCc1nn2c(-c3ccc(C)cc3)nnc2s1 | inconclusive [inhibitor, single point] | –
O=C1N/C(=C\c2ccc(O)cc2)C(=O)c2ccccc21 | – | inactive: -10.4% [at 46.1 µM]
COc1ccc(/C=C2\CCCC3C2=NC(=S)NC3c2ccc(OC)cc2)cc1 (stereo not given) | – | inactive: -6.08%
CN(CC(=O)Nc1cc([N+](=O)[O-])ccc1Cl)Cc1ccc(Br)cc1 | – | inactive: -8.34% [at 46.1 µM]
Cc1ccc(CCNC(=O)C23CN(Cc4ccccc4)CC2C(c2ccc([N+](=O)[O-])cc2)=NO3)cc1 (stereo not given) | inconclusive [inhibitor, partial curve] | –
Clc1cc2c(c(CSc3nc4ccccc4n4cccc34)c1)OCOC2 | inconclusive [activator, single point] | –
Cn1c(=O)c2cc(S(=O)(=O)N3CCOCC3)ccc2n(C)c1=O | – | inactive: -15.2% [at 46.1 µM]
COc1cccc(C(=O)NC(=S)Nc2nnn(C)n2)c1 | – | inactive: 11.1%
CCOC(=O)C1=C(CN2CCc3ccccc32)NC(=O)NC1c1ccc(Cl)cc1 (stereo not given) | inconclusive [inhibitor, single point] | –
CCCCN(CCCC)C(=O)C1(P(=O)(c2ccccc2)c2ccccc2)CCC1 | inconclusive [inhibitor, single point] | –
O=C(N/C=N/OCc1ccc(Cl)cc1Cl)NOCc1ncc(C(F)(F)F)cc1Cl | inconclusive [inhibitor, single point] | –
COc1ccc(-n2c(Cc3cccn3C)nnc2SCC(=O)Nc2ccc(C(C)=O)cc2)cc1 | inconclusive [inhibitor, partial curve, poor fit] | –
